From PubChem BioAssay AID485294 (National Center for Advancing Translational Sciences (NCATS), 2010)
In all, about 370,000 compounds went through this assay and about 150 (0.041%) were called active. The shares of active, inactive and inconclusive entries below differ from those in the screen. Calls follow the shape of the dose curve; as a rule, active = well fitted inhibition curve with a large enough effect; inconclusive = small, poorly fitted or top-dose-only effect; inactive = flat fitted curve, though single readings scatter. No potency is given beside an inconclusive call; the fits are too rough.

Molecular target: Beta-lactamase (Escherichia coli (strain K12)) (UniProt P00811)
Sequence of UniProt P00811 (P00811 whole entry, looked up): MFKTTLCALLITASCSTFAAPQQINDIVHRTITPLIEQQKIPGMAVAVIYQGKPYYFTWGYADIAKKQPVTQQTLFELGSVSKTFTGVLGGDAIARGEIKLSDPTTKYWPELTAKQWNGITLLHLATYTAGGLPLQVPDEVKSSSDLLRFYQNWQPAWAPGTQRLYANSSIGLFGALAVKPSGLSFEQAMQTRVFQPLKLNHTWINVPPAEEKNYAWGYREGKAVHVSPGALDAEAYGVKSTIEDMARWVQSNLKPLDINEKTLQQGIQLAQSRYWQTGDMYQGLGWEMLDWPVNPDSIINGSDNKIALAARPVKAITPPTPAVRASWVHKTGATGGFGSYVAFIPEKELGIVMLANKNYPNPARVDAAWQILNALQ
Assay: qHTS Inhibitors of AmpC Beta-Lactamase (assay with detergent); also: nearly all actives have a fitted effect of over 25% in size;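 as to activity change, negative = inhibition: 0% = no-compound wells and -100% = no-enzyme wells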
Conditions: AmpC hydrolysis of nitrocefin, absorbance 480 nm, 0.01% Triton; activity change, negative = inhibition: at 114 µM (top of the series)
How it was run: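 AmpC (5.3 nM in the dispensed reagent) in 20 mM phosphate pH 7.0 with 0.01% (detergent screen) or 0.0001% Triton X-100 was preincubated with compounds for 15 min at room temperature. Nitrocefin was then added from an 800 uM solution, and hydrolysis was followed at 480 nm.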
Potency is read from the fitted curve at half-maximal effect; tags tell the direction and shape of the fitted curve.

Row | Structure (SMILES) | activity change, negative = inhibition | Potency
1 | COc1cccc(-c2nn3c(=O)cc(CN4CCN(C(=O)/C=C/c5ccccc5)CC4)nc3s2)c1 | inactive: -0.282% | –
2 | COc1ccccc1NC(=O)CCSc1nnnn1C | – | inconclusive [inhibitor, full curve, poor fit]
3 | CN(C)S(=O)(=O)N(CC(=O)Nc1ccccc1)c1ccccc1 | – | inconclusive [inhibitor, partial curve, poor fit]
4 | O=C(CCCNS(=O)(=O)c1cccs1)N1CCN(c2ccc(F)cc2)CC1 | inactive: 1.92% | –
5 | CCc1cc(=O)[nH]c(SCC(=O)Nc2ccc3c(c2)OCCO3)n1 | – | inconclusive [inhibitor, partial curve]
6 | CCn1cc(C(=O)NCCc2ccc(C)cc2)c(=O)c2cc(S(=O)(=O)N3CCC(C)CC3)ccc21 | inactive: -3.86% | –
7 | CCCOc1ccc(OC(=O)c2cn(-c3ccc(OC)cc3)c(=O)c3ccccc23)cc1 | inactive: -4.37% | –
8 | COc1cc(/C=C2/C(=N)N3N=C(CC(=O)N4CCOCC4)SC3=NC2=O)ccc1OC(C)c1ccccc1 (stereo unspecified) | – | inconclusive [inhibitor, partial curve]
9 | Cc1cc(S(=O)(=O)N2CCOCC2)ccc1NC(=O)c1ccc(F)cc1 | – | inconclusive [inhibitor, partial curve, poor fit]
10 | Cc1coc2cc3oc(=O)c(CCC(=O)O)c(C)c3cc12 | – | inconclusive [inhibitor, partial curve, poor fit]
11 | Cc1cccc(NC(=O)CCC(=O)N/N=C/c2cccnc2)c1 | inactive: 6.52% | –
12 | Cc1[nH]n(-c2ccccc2)c(=O)c1N=Nc1ccc(F)cc1 | inactive: 2.04% | –
13 | Cc1ccc(Cn2c3ccccc3c3cn[nH]c(=O)c32)cc1 | – | inconclusive [inhibitor, full curve, poor fit]
14 | COC(=O)C1=C(C)N(Cc2ccccc2)C(=NCc2cc(OC)c(OC)c(OC)c2)N[C@H]1CCc1ccccc1 | – | inconclusive [inhibitor, full curve]
15 | COc1ccc(C(C)=O)cc1COC(=O)c1cc2ccccc2cc1O | – | inconclusive [inhibitor, full curve]
16 | Cc1cc(C)c(S(=O)(=O)NCc2cccnc2)cc1C | inactive: -9.38% | –
17 | Cc1cccc(C(=O)NC(=S)Nc2cccc3nc(C)ccc23)c1 | – | inconclusive [inhibitor, partial curve, poor fit]
18 | Cc1c(Cl)cccc1NC(=O)Cn1nnc(-c2nc(-c3ccccc3)no2)c1N | inactive: 15.2% | –
19 | CCCCOc1cccc(C(=O)O)c1 | – | inconclusive [inhibitor, full curve, poor fit]
20 | O=C(COC(=O)c1c(Cl)cccc1Cl)Nc1ccccc1Br | inactive: -7.43% | –
21 | O=C(CNc1ccccc1)N/N=C/c1ccc([N+](=O)[O-])cc1 | inactive: -2.34% | –
22 | COC(=O)c1ccc(NC(=O)C(=O)NCC(c2cccnc2)N2CCc3ccccc32)cc1 (stereo unspecified) | inactive: 11.1% | –
23 | N#C/C(=C\c1ccccc1)C(=O)NCCN1CCOCC1 | – | inconclusive [inhibitor, full curve]
24 | CCCCOC(=O)c1ccc(NC(=O)c2csnn2)cc1 | inactive: -3.05% | –

Row | Structure (SMILES) | activity change, negative = inhibition | Potency
25 | COc1ccc(CNC(=O)CN(c2cccc(OC)c2)S(C)(=O)=O)cc1 | – | inconclusive [inhibitor, partial curve, poor fit]
26 | CSCC[C@H](NS(=O)(=O)c1ccc(C)cc1)C(=O)N1CCC(C(=O)N[C@@H](C)C(=O)O)CC1 | – | inconclusive [inhibitor, full curve, poor fit]
27 | COc1ccc(C(=O)CSc2nnc(CNC(=O)c3ccco3)n2C)cc1 | – | inconclusive [inhibitor, single point]
28 | O=C(c1cc2c(s1)CCCCC2)N1CCN(c2ncccn2)CC1 | – | inconclusive [inhibitor, full curve, poor fit]
29 | CC(C)OC(=O)CC(=O)CSc1nc(-c2ccc(F)cc2)cc(-c2ccccc2)c1C#N | – | inconclusive [inhibitor, partial curve, poor fit]
30 | CCCN1CCc2c(sc3nc(SC)n(-c4ccccc4)c(=O)c23)C1 | – | inconclusive [inhibitor, full curve, poor fit]
31 | O=C(O)c1ccc(-n2cccc2/C=C2/SC(=O)N(CC(=O)N3CCCC3)C2=O)cc1 | inactive: -14.4% | –
32 | O=C(NCCO)C(=O)Nc1cc2c3c(c1)CC(=O)N3CCC2 | inactive: 1.86% | –
33 | Cc1ccccc1OCC(=O)Nc1ccc2nc(SCC(N)=O)sc2c1 | inactive: 0.414% | –
34 | CC(=O)c1ccc(N(C(=O)CNC(=O)c2ccco2)C(C(=O)NC2CCCC2)c2ccco2)cc1 (stereo unspecified) | – | inconclusive [inhibitor, full curve, poor fit]
35 | CCOC(=O)C1=C(CC)Nc2ccccc2N=C1NC(=O)c1cccc(S(=O)(=O)N2CCOCC2)c1 | – | inconclusive [inhibitor, partial curve]
36 | Cc1nc2cc(-c3cccc(Cl)c3)nn2c(N2CCN(C(=O)c3ccco3)CC2)c1C | – | inconclusive [inhibitor, partial curve, poor fit]
37 | Cc1cc(C)nc(N/N=C/c2ccc(N3CCOCC3)cc2)n1 | inactive: -0.521% | –
38 | CCCC(=O)N(c1ccc(OCC)cc1)C1C=CS(=O)(=O)C1 (stereo unspecified) | – | inconclusive [inhibitor, full curve, poor fit]
39 | COc1ccc(S(=O)(=O)N(C)C)cc1NCC(=O)Nc1ccc(Br)c(C)c1 | inactive: -4.46% | –
40 | COc1cc(C=Nc2ccccc2C(=O)Nc2ccccc2)cc(OC)c1OC | – | inconclusive [inhibitor, full curve, poor fit]
41 | Cc1ccc(-c2nnn(CC(=O)Nc3cccc4c3CCCC4)n2)o1 | – | inconclusive [inhibitor, full curve]
42 | CSc1ncc(C(C)=O)c(C)n1 | inactive: -7.86% | –
43 | O=C(Cn1ncn2c(cc3ccccc32)c1=O)NCc1ccco1 | inactive: -4.11% | –
44 | Cc1csc(=O)n1CCC(=O)OCC(=O)Nc1ccc(S(N)(=O)=O)cc1 | inactive: 9.69% | –
45 | COc1cc(C(=O)NCCC2=CCCCC2)cc(OC)c1OC | – | inconclusive [inhibitor, full curve, poor fit]
46 | CCOC(=O)c1cccc(NC(=O)c2ccc3nc(CCc4ccccc4)oc3c2)c1 | inactive: 13.9% | –
47 | Cc1ccc(-n2nnnc2SCC(=O)N2c3ccccc3NC(=O)C2(C)C)cc1 | – | inconclusive [inhibitor, partial curve]
48 | COc1ccc(-c2c(-c3ccc(OCC(=O)NN)cc3O)n[nH]c2C(F)(F)F)cc1 | inactive: -0.239% | –

Row | Structure (SMILES) | activity change, negative = inhibition | Potency
49 | CC(C)OP(=O)(OC(C)C)C(Nc1ccccc1)c1ccc2c(c1)OCO2 (stereo unspecified) | inactive: 2.54% | –
50 | CSc1nc2sc3c(c2c(=O)n1C)CCC(C)C3 (stereo unspecified) | inactive: -5.88% | –
51 | Cc1cccc(NC(=O)COC(=O)c2ccc([N+](=O)[O-])o2)c1C | – | inconclusive [inhibitor, full curve, poor fit]
52 | CCNC(=O)N1CCCC(C(=O)c2ccc3cc(OC)ccc3c2)C1 (stereo unspecified) | inactive: -1.02% | –
53 | O=S(=O)(Nc1ccc2c(c1)OCO2)c1ccc(Br)s1 | – | inconclusive [inhibitor, single point]
54 | COc1cccc(/C=N/NC(=O)c2ccc(-c3ccccc3)cc2)c1O | – | inconclusive [inhibitor, full curve, poor fit]
55 | COCCCn1c(=O)c2sccc2n2c(CCCC(=O)Nc3cccc(C(F)(F)F)c3)nnc12 | inactive: 5.36% | –
56 | Cc1cc(Cn2nnc(-c3ccc(Br)cc3)n2)cc(C)c1O | – | inconclusive [inhibitor, single point]
57 | O=C(CNC(=O)c1ccccc1F)NCCOc1ccccc1Cl | – | inconclusive [inhibitor, full curve, poor fit]
58 | CSc1oc(-c2ccccc2)nc1S(=O)(=O)c1ccc(C)cc1 | – | inconclusive [inhibitor, single point]
59 | O=S(=O)(Nc1ccc(C(F)(F)F)cc1)c1ccc2c(c1)OCCO2 | inactive: -2.08% | –
60 | CC(=O)Nc1nc(SCCCc2ccccc2)n[nH]1 | – | inconclusive [inhibitor, full curve]
61 | Fc1ccc(NCc2cccnc2)cc1 | – | inconclusive [inhibitor, full curve, poor fit]
62 | NC(=O)c1ccccc1NC(=O)c1ccc2c(c1)OCO2 | – | inconclusive [inhibitor, full curve, poor fit]
63 | O=C(C[n+]1ccccc1)c1ccc(-c2ccccc2)cc1 | inactive: -4.35% | –
64 | COc1ccc(N2C(=O)C(CN3CCN(C)CC3)C2c2ccccc2)cc1 (stereo unspecified) | inactive: 4.34% | –
65 | Cc1ccc(S(=O)(=O)NC2=NCN(CCOC(=O)c3ccc([N+](=O)[O-])cc3)CN2)cc1 | – | inconclusive [inhibitor, full curve, poor fit]
66 | O=c1cc(O)nc(SCc2ccccc2)n1-c1ccc(Cl)cc1 | – | inconclusive [inhibitor, partial curve]
67 | CCOCCCNC(=O)c1cc2c(s1)-c1ccccc1SC2 | – | inconclusive [inhibitor, single point]
68 | CCCOc1ccc(C(=O)CCC(=O)OC(C)C(=O)Nc2ccc(NC(C)=O)cc2)cc1 (stereo unspecified) | – | inconclusive [inhibitor, partial curve]
69 | CC1=C(C(=O)OCc2ccccc2)C(c2cccc([N+](=O)[O-])c2)NC(=O)N1 (stereo unspecified) | – | inconclusive [inhibitor, partial curve, poor fit]
70 | CC1(C)Cc2nc3oc4c(=O)n(CC(=O)Nc5ccccc5)cnc4c3cc2CO1 | – | inconclusive [inhibitor, full curve, poor fit]
71 | CCCCn1c(O)c(N=NC(=O)c2ccccc2NS(=O)(=O)c2cccs2)c2ccccc21 | inactive: 0.77% | –
